Hit rate of the full screen: of about 320,000 compounds, about 7,600 (2.4%) were called active. Inconclusive means that the source gave no clear call. Such entries were picked first, then a sample of the others. Calls follow the shape of the dose curve; as a rule, active = well fitted activation curve with a large enough effect; inconclusive = small, poorly fitted or top-dose-only effect; inactive = no such curve, though single readings can be large or run the other way. Potencies of inconclusive entries are left out as doubtful fits.
Experiment: qHTS Assay for NPC1 Promoter Activators; also: nearly all actives have a fitted effect of over 60% in size; as to activation: % of control where 0% means no effect
Conditions: Huh7 NPC1 promoter luciferase reporter, 24 h; series mostly up to 9.22 µM; activation: at the top concentration
Source text: NIH Chemical Genomics Center [NCGC] NIH Molecular Libraries Probe Production centers Network [MLPCN] MLPCN Grant: MH089375-01A1 Assay Submitter (PI): Yiannis A. Ioannou NCGC Assay Overview: Niemann Pick Type C (NPC) is a rare neurodegenerative lipidosis that is characterized by lipid storage in the endosomal/lysosomal system. Treatment modalities for this devastating disease are currently non-existent due to the severe obstacles associated with accessing the central nervous system with proteins or genes. The majority of mutations causing NPC disease are missense mutations that are distributed throughout the length of the NPC1 protein, with the most prevalent being the I1061T allele. Although NPC1 mutant proteins may be functional, they are typically trapped in the ER due to misfolding. […] We have developed and optimized a cell based luciferase reporter assay in 1536 well format for the identification of up-regulators of the mutant NPC1 promoter.
The NPC1 promoter is cloned in front of the luciferase reporter gene, therefore NPC promoter activation results in luciferase expression. Frozen stock of the NPC1 promoter transfected Huh7 cells were obtained from the laboratory of Dr. Yiannis Ioannou (The Mount Sinai School of Medicine, New York, NY). Cells were propagated and maintained at NCGC in medium containing RPMI-1640 supplemented with 10% FBS, 2mM L-glutamine, and 50ug/ml penicillin/streptomycin. Cells were harvested in and plated for assays in OP-MEM I reduced-serum medium supplemented with 10% FBS. The Amplite luciferase reporter gene assay kit was purchased from ABD Bioquest and prepared/stored according to manufacturers recommendations. qHTS Assay Setup: 1.#Dispensed 5ul of Huh7 cells stably expressing NPC1-luciferase at a density of 1500 cells per well 1536-well plates. 2.#Incubate cells at 37C, 5% CO2, and 95% humidity for 2 hours. 3.#Transferred 23nl per well of compound in DMSO solution. 4.#Incubated at 37C, 5% CO2, and 95% humidity for 24 hours. 5.#Dispensed 3ul per well of Amplite reagent(ABD Bioquest) per well. 6.#Incubate at ambient for 10 minutes. 7.#Read using the luminescence protocol on the ViewLux plate reader (Perkin Elmer).
With `C/C(=N\NC(=O)c1cc(-c2ccc(C)s2)nc2ccccc12)c1cccnc1` the Potency was inconclusive [activator, single point].
In the case of `COC(=O)c1ccc(/C=C/C(=O)c2cccc(OC)c2)cc1`, the Potency is reported as inconclusive [activator, single point].
In the case of `COc1cccc(/C=C2\CCc3ccccc3C2=O)c1`, the Potency is reported as inconclusive [activator, partial curve].
For `N#CC(Cc1ccc(OC(F)F)cc1)c1nc2ccccc2[nH]1` (configuration not stated), the Potency was inconclusive [activator, single point].
With `CCOC(=O)N1CCN(Cc2nc3cc(NC(=O)c4ccco4)ccc3n2CC)CC1` the Potency was inconclusive [activator, single point].
In the case of `Cn1ccs/c1=N\C(=O)Nc1ccccc1`, the Potency is reported as active: 2.51 µM.
For `C/C(=N\NC(=O)c1cc(O)ccc1O)c1cccc(NC(=O)c2ccc(Cl)cc2)c1`, the Potency was inconclusive [activator, single point].
In the case of `COc1cccc(CNC(=O)Cc2ccc(NC(=O)C3=C(C)OCCS3)cc2)c1`, the Potency is reported as inconclusive [activator, partial curve].
For `CC(=O)c1ccc(N(C(=O)c2csnn2)C(C(=O)NC(C)(C)C)c2cccs2)cc1` (configuration not stated), the “activation” value was inactive: -1.21%.
For `CCC(CO)Oc1cc(NCc2ccccc2F)c2ncn(C(C)C)c2c1` (configuration not stated), the “activation” value was inactive: -1.12%.
In the case of `CCC(C)N1CC(O)=C(c2nc3ccccc3[nH]2)C1=N` (configuration not stated), the Potency is reported as inconclusive [activator, single point].
With `CCCN1CCN(C(=O)c2cc3c(s2)-c2ccccc2OC3)CC1` the Potency was inconclusive [activator, partial curve].
In the case of `COc1ccc2c(c1OC)C(=O)N(c1ccc(F)cc1)C2`, the Potency is reported as active: 2 µM.
With `O=C(N/N=C/c1cccc(O)c1)c1ccc(COc2ccc3c(c2)CCC3)o1` the Potency was inconclusive [activator, partial curve].
For `CCOC(=O)c1cccc(NC(=O)c2cnc3ccccc3n2)c1`, the Potency was inconclusive [activator, partial curve].
For `COc1cc(/C=C2\SC(c3ccccc3)=NC2=O)cc(Cl)c1O`, the “activation” value was inactive: -6.68%.
In the case of `COc1ccccc1C(=O)NC(=O)COC(=O)Cc1ccccc1[N+](=O)[O-]`, the “activation” value is reported as inactive: -0.858%.
In the case of `CCOC(=O)C1C(=O)C=C(/C=C/c2ccc(N(C)C)cc2)CC1c1ccccc1` (configuration not stated), the “activation” value is reported as inactive: -0.921%.
For `CCOC(=O)/C(C#N)=C/c1c[nH]c2ccccc12`, the Potency was “inactive”.
For `Cc1ccc(C=Nc2ccccc2C(N)=O)o1`, the Potency was inconclusive [activator, partial curve].
With `Brc1ccc(-c2csc(/N=C/N3CCOCC3)n2)cc1` the Potency was inconclusive [activator, single point].
For `CSc1ccccc1NC(=O)Nc1ccc(Cl)cc1`, the Potency was inconclusive [activator, partial curve].
With `O=C(O)c1ccc(N/N=C/c2ccnc3ccccc23)cc1` the Potency was active: 0.562 µM.
With `O=C(O)c1cc(N/N=C/c2cccs2)ccc1Cl` the Potency was inconclusive [activator, full curve].
With `O=S(=O)(c1ccc(Cl)s1)N1CCCc2cccc(O)c21` the Potency was inconclusive [activator, partial curve].
For `CCC(=O)Nc1cccc(C(=O)OCC(=O)c2ccccc2Cl)c1`, the Potency was active: 3.16 µM.
With `Cc1cccc(NC(=O)Cc2ccc(Br)cc2)n1` the Potency was inconclusive [activator, single point].
In the case of `Brc1ccc(C2=NC(Cc3ccccc3)CO2)cc1` (configuration not stated), the Potency is reported as inconclusive [activator, single point].
For `C(/C=C/c1ccccc1)=N/N1CCN(c2ccccc2)CC1`, the Potency was inconclusive [activator, partial curve].
For `O=C(CCS(=O)(=O)c1cccs1)NC1CCCCCC1`, the Potency was active: 2.82 µM.
For `Cc1csc(NC(=O)c2cc(C)oc2C)n1`, the Potency was inconclusive [activator, single point].
In the case of `c1ccc(-c2cn3c(n2)-c2ccccc2C3)cc1`, the Potency is reported as active: 3.16 µM.
With `CC(C)c1ccc(NC(=S)NC2CC3C=CC2C3)cc1` (configuration not stated) the Potency was active: 3.98 µM.
With `CCCc1cc(C(=O)Nc2cccc(C(C)=O)c2)no1` the Potency was active: 3.16 µM.
For `Cc1cccc(Nc2nc(-c3cccs3)cs2)n1`, the Potency was inconclusive [activator, single point].
With `CCc1ccc(/C=N/N2CCN(c3ccccn3)CC2)cc1` the Potency was inconclusive [activator, single point].
For `CC1CN(C(=O)c2cc3ccccc3oc2=O)CC(C)O1` (configuration not stated), the “activation” value was inactive: -3.63%.
In the case of `CCc1c(C)sc(NC(=O)c2cc(C)on2)c1C#N`, the Potency is reported as inconclusive [activator, single point].
For `CCOC(=O)C1=C(O)/C(=C/c2cc(OC)c(OC)c(OC)c2)SC1=Nc1ccc(OC)cc1`, the Potency was inconclusive [activator, partial curve].
For `Cc1ccc(CN=c2c([N+](=O)[O-])nn(-c3ccc4c(c3)OCCO4)n2O)cc1`, the Potency was inconclusive [activator, single point].
For `Cc1ccc(OCC(=O)NNC(=O)Cc2ccc(S(=O)(=O)N3CCOCC3)s2)cc1`, the “activation” value was inactive: 4.92%.
In the case of `Nc1ccc2c(c1)C(=O)c1ccccc1C2=O`, the Potency is reported as inconclusive [activator, single point].
For `COc1ccc(C(=O)Cc2nnc(C)s2)cc1`, the Potency was inconclusive [activator, single point].
For `Cn1c(SCC(=O)c2ccccc2)nnc1-c1cnccn1`, the Potency was inconclusive [activator, partial curve].
In the case of `Cn1c(SCc2ccccc2)nnc1-c1cccs1`, the Potency is reported as inconclusive [activator, partial curve].
For `COc1cccc(N/C=C/C(=O)c2ccc(C)cc2)c1`, the Potency was active: 0.447 µM.
With `CC1=CCC(COC(=O)Nc2ccccc2)CC1` (configuration not stated) the Potency was active: 2.82 µM.
For `COc1cc(/C=N/OCC(=O)Nc2cc(C)cc(C)c2)ccc1OCc1ccc(Cl)cc1`, the Potency was inconclusive [activator, single point].
In the case of `CCOC(=O)c1ccc(N/C=C\C(=O)c2cccc(OC)c2)cc1`, the Potency is reported as inconclusive [activator, single point].
With `COc1ccc(/C(C)=N/NC(=O)c2nc(C)cc(C)n2)cc1` the Potency was inconclusive [activator, single point].
In the case of `Cc1ccccc1OCc1nc2ccccc2[nH]1`, the Potency is reported as inconclusive [activator, partial curve].
For `CCn1c(O)c(N=Nc2ccc3ccccc3n2)c2ccccc21`, the Potency was active: 3.16 µM.
For `CC(=O)c1c(C)[nH]c(C(=O)OCC(=O)c2ccc(C)s2)c1C`, the Potency was inconclusive [activator, partial curve].
In the case of `COc1cccc(NC(=O)C2(S(=O)(=O)c3ccc(Cl)cc3)CC2)c1`, the “activation” value is reported as inactive: -2.96%.
For `O=C(CCc1nnc(-c2ccc(-c3ccccc3)cc2)o1)N1CCCCC1`, the Potency was inconclusive [activator, full curve, poor fit].
For `COc1cccc(CNC(=O)CSc2nnc3c(n2)[nH]c2ccccc23)c1`, the “activation” value was inactive: -1.45%.
For `CCOC(=O)c1ccccc1NC(=O)COC(=O)c1c(CC)noc1C`, the “activation” value was inactive: -5.65%.
With `Cc1csc(NC(=O)c2ccoc2C)n1` the Potency was inconclusive [activator, partial curve].
In the case of `O=C(NCc1ccc(F)cc1)c1cnn2ccccc12`, the Potency is reported as active: 3.16 µM.
In the case of `CCOC(=O)c1sc(NC(=O)CSc2nccc(C)n2)c(C#N)c1C`, the “activation” value is reported as inactive: 3.24%.
For `O=C(CCc1nc2ccccc2c(=O)[nH]1)Nc1nnc(SCc2ccccc2F)s1`, the “activation” value was inactive: 28.5%.
For `COc1ccccc1NC(=O)Nc1ccc(C(=O)N2CCCCC2)cc1`, the Potency was inconclusive [activator, partial curve].
For `COc1cccc(/C=C2\SC(=S)N(CCC(=O)N3CCCCC3)C2=O)c1`, the “activation” value was inactive: -31.3%.
In the case of `Cc1cn2c(N)c(/C=C3\C=Nc4ccccc43)c(=O)nc2s1`, the Potency is reported as inconclusive [activator, partial curve].
For `Clc1nc2c(ccc3ccccc32)[nH]1`, the Potency was inconclusive [activator, single point].
For `Cc1c(C(=O)Nc2ccccn2)oc2ccc(Br)cc12`, the Potency was inconclusive [activator, single point].
With `Cc1ccc(O)c(NC(=O)c2cc(-c3ccccc3Cl)on2)c1` the Potency was inconclusive [activator, single point].
For `Cc1cccc2cc3c(N)c(C(=O)N4CCOCC4)sc3nc12`, the Potency was inconclusive [activator, full curve].
In the case of `CC1CCN(c2ccc(C(=O)NCc3cccs3)cn2)CC1`, the Potency is reported as inconclusive [activator, single point].
For `CCOC(=O)c1c(-c2ccccc2)nc2ccc(C)cn12`, the Potency was active: 3.55 µM.
In the case of `O=C(Nc1ncc(Cc2ccccc2Cl)s1)C1CCCO1` (configuration not stated), the Potency is reported as active: 3.55 µM.
For `Cc1ccc(-n2c(C)c(C)c3c(NCCCO)ncnc32)cc1`, the Potency was active: 2.82 µM.
With `CC(C)(C)c1ccc(-c2nnc(SCC(=O)NC3CC3)o2)cc1` the Potency was inconclusive [activator, partial curve].
With `Cc1ccc(NC(=O)N2CCOCC2)c(C)c1` the “activation” value was inactive: 0.889%.
In the case of `Cc1cccc(C(=O)Nc2ccc3ccccc3c2)c1`, the Potency is reported as inconclusive [activator, partial curve, poor fit].
In the case of `COc1cccc(-c2noc(-c3ccoc3C)n2)c1`, the Potency is reported as inconclusive [activator, single point].
In the case of `CCCc1cc(C(=O)N(C2CCCCC2)C2CCCCC2)no1`, the “activation” value is reported as inactive: -3.07%.

Source: PubChem BioAssay AID485313 (National Center for Advancing Translational Sciences (NCATS), 2010)
Potency is read from the fitted curve at half-maximal effect; tags tell the direction and shape of the fitted curve.
